For this experiment, the target named is T1, L-cysteine desulfurase IscS (E. coli, UniProt P0A6B7 1-404, PLP (pyridoxal phosphate) cofactor).
T1 construct: L-cysteine desulfurase IscS of Escherichia coli; Predicted mass of the dimer with PLP printed as 90,642 Da; also called (IscS)2; dimeric IscS; source: E. coli BL21(DE3), purified following previously described procedures
T1 sequence (looked up): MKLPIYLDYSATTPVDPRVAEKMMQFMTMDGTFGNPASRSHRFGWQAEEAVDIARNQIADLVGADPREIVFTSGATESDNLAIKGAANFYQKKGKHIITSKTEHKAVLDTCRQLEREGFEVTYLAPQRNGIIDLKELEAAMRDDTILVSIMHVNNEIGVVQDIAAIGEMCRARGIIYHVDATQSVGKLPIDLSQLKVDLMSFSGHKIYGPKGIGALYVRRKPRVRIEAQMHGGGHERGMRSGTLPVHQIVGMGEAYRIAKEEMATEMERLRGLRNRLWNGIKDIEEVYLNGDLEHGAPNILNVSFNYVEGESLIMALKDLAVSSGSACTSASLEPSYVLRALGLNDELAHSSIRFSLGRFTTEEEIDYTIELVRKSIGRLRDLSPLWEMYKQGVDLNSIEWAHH
The experiment is described as follows: SEC; analytical gel filtration on Superdex 200 in 50 mM Tris-HCl, 200 mM NaCl, pH 8.0; 30 µM IscS with 90 µM IscU or TusA, 20 min at 30°C; complex fractions pooled, concentrated, incubated with the third protein (1:3 ratio) and run again; fractions on 17% SDS-PAGE. Particulars: both partners purified. On the technique in general: SEC sorts molecules by how far they enter the pores of the column.

B1: IscU (natural protein, E. coli, UniProt P0ACD4 1-128, looked up)
chain: MAYSEKVIDHYENPRNVGSFDNNDENVGSGMVGAPACGDVMKLQIKVNDEGIIEDARFKTYGCGSAIASSSLVTEWVKGKSLDEAQAIKNTDIAEELELPPVKIHCSILAEDAIKAAIADYKSKREAK
notes: Iron-sulfur cluster assembly scaffold protein IscU of Escherichia coli; also called scaffold protein IscU; source: E. coli BL21(DE3), purified following previously described procedures; (His)6x-tag cleaved with thrombin and removed on a Ni2+-agarose column
In the case of B1, the binding result is “binds”.

These data come from article PMC11302665 (Microbiology Spectrum, 2024).
